Among all 220,000 compounds or so, about 5,700 (2.6%) were called active. Inconclusive results, whose numbers are uncertain, are shown with a selection of clear calls. Calls come from the whole dose curve; as a rule, active = well fitted inhibition curve with a large enough effect; inconclusive = small, poorly fitted or top-dose-only effect; inactive = no such curve, though single readings can be large or run the other way. Where the call is inconclusive, the potency comes from a doubtful curve fit.
biological target: Lysine-specific demethylase 5B (Homo sapiens) (UniProt Q9UGL1); experiment: Primary screen for KDM5B Histone Demethylases FDH-coupled qHTS; details: FDH-coupled NADH fluorescence (FDH is formaldehyde dehydrogenase); activity change, negative = inhibition: at 57.7 µM (top of the series) unless noted; note: nearly all actives have a fitted effect of over 70% in size; for activity change, negative = inhibition: 0% is about no effect
Procedure, shortened: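 KDM5BΔAP (200 nM final) in 50 mM HEPES pH 7.5, 0.01% Tween-20 was preincubated 10 min at RT with compound over a concentration range. Substrate mix (H3K4me3 12.5 µM, α-KG 25 µM, Fe²⁺, ascorbate, NAD⁺, FDH) was added, and NADH fluorescence change over 30 min gave dose-response curves.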
Potency is the fitted concentration of half-maximal effect; tags give direction and shape of the fitted curve.

UniProt Q9UGL1, sequence (Q9UGL1 whole entry, looked up): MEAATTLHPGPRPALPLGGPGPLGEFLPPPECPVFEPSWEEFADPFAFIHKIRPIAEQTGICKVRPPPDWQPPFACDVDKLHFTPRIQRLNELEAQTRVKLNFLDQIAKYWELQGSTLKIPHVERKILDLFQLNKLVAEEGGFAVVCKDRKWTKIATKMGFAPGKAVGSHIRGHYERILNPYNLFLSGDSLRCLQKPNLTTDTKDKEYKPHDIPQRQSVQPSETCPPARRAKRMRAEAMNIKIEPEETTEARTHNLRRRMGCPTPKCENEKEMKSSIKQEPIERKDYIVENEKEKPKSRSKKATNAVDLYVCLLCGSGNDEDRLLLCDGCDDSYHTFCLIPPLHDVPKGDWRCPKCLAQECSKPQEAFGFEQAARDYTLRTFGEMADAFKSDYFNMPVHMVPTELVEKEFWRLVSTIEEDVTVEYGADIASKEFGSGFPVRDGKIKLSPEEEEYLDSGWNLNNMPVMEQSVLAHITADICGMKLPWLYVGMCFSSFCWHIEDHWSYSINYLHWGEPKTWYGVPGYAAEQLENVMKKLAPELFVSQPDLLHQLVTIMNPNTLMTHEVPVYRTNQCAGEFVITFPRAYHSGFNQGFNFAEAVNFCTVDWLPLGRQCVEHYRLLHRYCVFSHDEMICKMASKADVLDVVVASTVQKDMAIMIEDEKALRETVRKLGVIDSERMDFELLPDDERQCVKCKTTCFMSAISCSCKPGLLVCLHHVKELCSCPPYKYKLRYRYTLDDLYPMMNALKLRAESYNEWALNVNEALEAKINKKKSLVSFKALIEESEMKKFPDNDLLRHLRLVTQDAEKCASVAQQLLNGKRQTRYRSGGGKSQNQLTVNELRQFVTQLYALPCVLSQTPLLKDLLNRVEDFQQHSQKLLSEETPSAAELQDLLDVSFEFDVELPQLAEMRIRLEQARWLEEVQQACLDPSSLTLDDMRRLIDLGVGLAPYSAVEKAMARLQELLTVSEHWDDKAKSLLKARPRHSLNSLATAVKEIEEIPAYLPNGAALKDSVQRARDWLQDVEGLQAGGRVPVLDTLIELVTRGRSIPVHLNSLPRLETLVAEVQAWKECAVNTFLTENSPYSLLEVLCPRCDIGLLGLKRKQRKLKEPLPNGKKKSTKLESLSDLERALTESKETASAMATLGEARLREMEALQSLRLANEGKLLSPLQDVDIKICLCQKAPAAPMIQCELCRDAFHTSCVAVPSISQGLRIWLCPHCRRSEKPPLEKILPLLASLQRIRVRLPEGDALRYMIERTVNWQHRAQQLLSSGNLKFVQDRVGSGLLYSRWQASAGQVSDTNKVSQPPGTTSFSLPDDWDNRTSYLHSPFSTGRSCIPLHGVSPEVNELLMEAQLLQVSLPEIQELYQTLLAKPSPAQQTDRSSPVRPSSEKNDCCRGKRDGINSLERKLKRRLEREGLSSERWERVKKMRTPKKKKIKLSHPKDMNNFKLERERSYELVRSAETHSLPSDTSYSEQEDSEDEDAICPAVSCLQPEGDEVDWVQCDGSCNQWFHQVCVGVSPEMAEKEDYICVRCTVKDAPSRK

SMILES	Potency	activity change, negative = inhibition
CC(C)(C)OC(=O)NCCCC(=O)NCc1c[nH]c2ncccc12	inconclusive: 17.8 µM [inhibitor, single point]	–
CCCCN1CCN(C(=O)c2cc(-c3ccncc3)nc3c(C)cccc23)CC1	inconclusive: 28.2 µM [inhibitor, single point]	–
CCOc1ccc(CCNC(=O)CCc2cn(Cc3ccc(F)cc3)c3ccccc23)cc1	inconclusive: 1.58 µM [inhibitor, partial curve, poor fit]	–
COc1ccc(N2Cc3cccc(C(=O)NCc4ccc(C)cc4)c3C2=O)cc1	inconclusive: 28.2 µM [inhibitor, partial curve, poor fit]	–
O=C1CCCC2=C1C(c1cccc(Cl)c1Cl)CC(=O)N2c1ccc(F)cc1 (configuration not stated)	inactive	–
CCOc1ccc(CCNC(=O)c2cc3c(-c4ccc(OC)c(OC)c4)nn(C)c3s2)cc1OCC	inconclusive: 28.2 µM [inhibitor, partial curve, poor fit]	–
CCCCn1c(=O)[nH]c(=O)c2c1nc(CCC(N)=O)n2CC(C)C	inactive	–
COc1ccc(-c2cc(=O)n3[nH]c(C)nc3n2)cc1OC	inconclusive: 22.4 µM [inhibitor, partial curve, poor fit]	–
O=C(NCCOc1ccccc1)c1nc2c(o1)CCN(Cc1cccc(F)c1)CC2	inconclusive: 31.6 µM [inhibitor, partial curve, poor fit]	–
C=CCS(=O)(=O)O	inactive	–
CCOc1ccc2c(n1)CCN(C(=O)C1CCCC1)C2	inconclusive: 25.1 µM [inhibitor, partial curve, poor fit]	–
CN1CC(=O)N(C2CCNC2)Cc2c1ncnc2N1CCC(N2CCCCC2)CC1 (configuration not stated)	inconclusive: 50.1 µM [inhibitor, partial curve]	–
COc1ccc(-c2cc(N3CCCC(NC(=O)Cc4ccc(F)cc4)C3)n[nH]2)cc1 (configuration not stated)	inconclusive: 31.6 µM [inhibitor, partial curve, poor fit]	–
Cc1ccc(/C=C/C(=O)OCc2ccc(C#N)cc2)cc1	inactive	–
COc1ccc(-c2ccc3ncn(Cc4ccccc4)c(=O)c3n2)cc1OC	inconclusive: 35.5 µM [inhibitor, single point]	–
CCc1ccc(NC(=O)c2cc3n(n2)CC(c2ccc4c(c2)OCO4)OC3)cc1 (configuration not stated)	active: 31.6 µM	–
O=c1c2c(nc(NCCO)n1C1CCCCC1)-c1ccccc1CC21CCCC1	inconclusive: 31.6 µM [inhibitor, partial curve, poor fit]	–
O=C(O)c1cccc(S(=O)(=O)Nc2cc(F)ccc2OCC(F)(F)F)c1	inactive	–
Brc1ccc(-n2nc(-c3ccccc3)c3cnc4cc5c(cc4c32)OCO5)cc1	inconclusive: 15.8 µM [inhibitor, partial curve, poor fit]	–
Cc1cccc(-c2nc3cc4c(cc3cc2CN2CCC[C@H]2C(N)=O)OCO4)c1	inconclusive: 10 µM [inhibitor, partial curve, poor fit]	–
Cc1cccc(N2CCN(S(=O)(=O)c3cc(C(=O)Nc4ccccc4Cl)ccc3F)CC2)c1C	inconclusive: 17.8 µM [inhibitor, single point]	–
CCn1cnnc1CC1CCN(C(=O)NCc2ccccc2)C1 (configuration not stated)	inactive	–
COCCN(Cc1cc2cc(C)ccc2[nH]c1=O)C(=O)c1cccnc1	inconclusive: 39.8 µM [inhibitor, single point]	–

SMILES	Potency	activity change, negative = inhibition
CC(C)(C)C(=O)NCc1ccc(-c2nc3ccccc3s2)cc1	inactive	–
CC(NC(=O)c1ccc(C(C)(C)C)cc1)C(=O)N1CCN(c2ccccn2)CC1 (configuration not stated)	inconclusive: 22.4 µM [inhibitor, single point]	–
COc1ccc(O)c(C(=O)OC(C)C(=O)C23CC4CC(CC(C4)C2)C3)c1 (configuration not stated)	inactive	–
Cc1noc(C)c1C(=O)NCC(=O)N1CCCCCCNC(=O)CC1c1ccccc1 (configuration not stated)	inactive	–
COc1ccc(C(=O)N2CCCN(c3nnc4ccccn34)CC2)cc1F	active: 25.1 µM	–
COCCn1c(=N)c(C(=O)NC(C)c2ccccc2)cc2c(=O)n3cc(C)ccc3nc21 (configuration not stated)	inconclusive: 2.51 µM [inhibitor, full curve, poor fit]	–
COc1ccc(CNC(=O)Cc2c(C)c3c(OC(C)=O)cc(OC(C)=O)cc3oc2=O)cc1OC	inconclusive: 28.2 µM [inhibitor, single point]	–
O=C(NC[C@H]1COCc2nc3cc(F)ccc3n21)C1CC1	inconclusive: 28.2 µM [inhibitor, partial curve]	–
CNC(=O)C1CCN(C(=O)N2CC3CC(C2)[C@H]2CCCC(=O)N2C3)CC1 (some centres not stated)	inactive	–
Cc1cccc(NC(=O)C(C#N)C(=O)CCc2ccccc2)c1 (configuration not stated)	inactive	–
O=C(CC1CCCC1)NC1CCN(c2cnn(CC3CC3)c(=O)c2)CC1	inactive	–
CN(C)CC1(O)CCC2(CCN(C(=O)c3[nH]nc4c3CCc3ccccc3-4)CC2)CC1	inconclusive: 28.2 µM [inhibitor, single point]	–
Cc1ccccc1-c1nc(S(=O)(=O)c2ccc(F)cc2)c(N(C)C)o1	inconclusive: 39.8 µM [inhibitor, single point]	–
CCC(Sc1nncn2c1cc1oc(C)cc12)C(=O)Nc1ccc(F)cc1 (configuration not stated)	inconclusive: 25.1 µM [inhibitor, partial curve, poor fit]	–
C=CCSc1nnc(NC(=O)c2ccc(NC(C)=O)cc2)s1	inconclusive: 28.2 µM [inhibitor, single point]	–
Cn1c(=O)n(CCC(=O)N2CCCC2)c(=O)c2cc(S(=O)(=O)Nc3ccc(C#N)cc3)ccc21	inactive	–
CCc1ccc(-c2nc(CS(=O)CC(=O)NCCc3ccc(Cl)cc3)c(C)o2)cc1 (configuration not stated)	inconclusive: 44.7 µM [inhibitor, single point]	–
O=C1CCSC2(C(=O)N(Cc3ccc(F)cc3)c3ccccc32)N1c1ccc(F)c(F)c1 (configuration not stated)	inconclusive: 2.82 µM [inhibitor, partial curve, poor fit]	–
COc1ccc(N2C3=C(C(=O)CC(C)(C)C3)C(c3ccccc3OC)C3=C2CC(C)(C)CC3=O)cc1	inconclusive: 31.6 µM [inhibitor, partial curve, poor fit]	–
COC(=O)c1sc(N)c(C#N)c1C	inactive	–
Cc1ccc(N2CCC(NC(=O)c3ccc4[nH]ccc4c3)C2=O)cc1C (configuration not stated)	active: 31.6 µM	–
CCNC(=O)CC1C(=O)N(c2cccc(OC)c2)C(=O)N1Cc1ccc(OC)c(OC)c1 (configuration not stated)	inconclusive: 31.6 µM [inhibitor, single point]	–
CCOc1ccc2oc(=O)cc(CN3CCN(C(=O)c4ccc(F)cc4)CC3)c2c1	inconclusive: 31.6 µM [inhibitor, partial curve, poor fit]	–

SMILES	Potency	activity change, negative = inhibition
O=C(Cn1ncc2c3ccccc3n(Cc3cccc(Cl)c3)c2c1=O)NC1CCCCCC1	inconclusive: 39.8 µM [inhibitor, single point]	–
CCN1CCSc2ccc(C(=O)NCc3ccc(OC)cc3)cc21	inconclusive: 35.5 µM [inhibitor, partial curve, poor fit]	–
Cn1cnc(S(=O)(=O)N2CCOc3ccc(CN4CCc5ccccc5C4)cc3C2)c1	inconclusive: 15.8 µM [inhibitor, partial curve, poor fit]	–
Cc1onc(-c2ccccc2)c1C(=O)NC1CCOC2(CCOCC2)C1 (configuration not stated)	inactive	–
CS(=O)(=O)N1CCC(CC(=O)NCCCN2CCc3ccccc3C2)C1 (configuration not stated)	inconclusive: 28.2 µM [inhibitor, partial curve, poor fit]	–
Cc1oc2cc(OCC(=O)N3CCCC3)ccc2c(=O)c1Oc1ccccc1	inactive	–
COc1cc2nc(NC(=O)c3ccc(Cl)cc3)sc(=O)c2cc1OC	inconclusive: 39.8 µM [inhibitor, partial curve, poor fit]	–
COc1ccc2c(c1)CCN=C2C[C@H]1CN(C(=O)c2cccnc2)CC[C@H]1CC(=O)O	active: 31.6 µM	–
COc1ccc(C2C=C(c3ccccc3)Nc3nc(NC(=O)/C=C/c4ccccc4)nn32)cc1 (configuration not stated)	inconclusive: 44.7 µM [inhibitor, single point]	–
CCCc1nc2ccccc2n1CC(O)c1ccc(F)cc1 (configuration not stated)	inactive	–
CNC(=O)c1cccn2cncc12	inconclusive: 35.5 µM [inhibitor, partial curve, poor fit]	–
CCCn1nc(C(=O)Nc2cc(S(=O)(=O)N3CCCCC3)ccc2C)c2ccccc2c1=O	inactive	–
CCC(C)NC(=O)Cn1ccn2nc3c(c2c1=O)CCCC3 (configuration not stated)	inactive	–
O=C(O)C/C(=C/c1cccnc1)c1nc2ccccc2s1	inconclusive: 25.1 µM [inhibitor, partial curve, poor fit]	–
CCn1c(=O)c(C(=O)NNC(=O)c2ccccc2Cl)c(O)c2ccccc21	inconclusive: 25.1 µM [inhibitor, partial curve, poor fit]	–
N#Cc1cccc(C(=O)NC2CCN(c3cc(-c4ccccc4)[nH]n3)CC2)c1	inconclusive: 17.8 µM [inhibitor, partial curve]	–
COc1cccc(OC)c1OCc1cc(-c2ccco2)on1	inactive	–
O=C(O)CCC(=O)c1ccc(Cl)s1	inconclusive: 25.1 µM [inhibitor, partial curve, poor fit]	–
CCN(CC)S(=O)(=O)c1ccc2c(c1)nc(SCC(=O)Nc1ccc3c(c1)OCO3)n2CC	inactive	–
COc1ccccc1C(=O)Oc1c(Cl)cc(C#N)cc1OC	inconclusive: 39.8 µM [inhibitor, partial curve, poor fit]	–
CCCCOc1cccc(C(=O)N(Cc2sccc2C)C2CCS(=O)(=O)C2)c1 (configuration not stated)	–	inconclusive: -32.7% [inhibitor]
